# The list shows a part of the results. The full chains were built here from the parent and the listed change. Values near 0.05 are background.
# B1: TEV protease; numbered along this chain (parent)
# chain: MGESLFKGPRDYNPISSSICHLTNESDGHTTSLYGIGFGPFIITNKHLFRRNNGTLVVQSLHGVFKVKDTTTLQQHLVDGRDMIIIRMPKDFPPFPQKLKFREPQREERICLVTTNFQTKSMSSMVSDTSCTFPSGDGIFWKHWIQTKDGQCGSPLVSTRDGFIVGIHSASNFTNTNNYFTSVPKNFMELLTNQEAQQWVSGWRLNADSVLWGGHKVFMVKPEEPFQPVKEATQL
# Variants of: B1
# Test: raw area under fraction-flipped curve 0-4 h after induction (AUC4h, not background-subtracted), DNA-recorder readout of cleavage of the substrate (dimensionless); higher = more cleavage of the substrate by the protease variant
# Conditions: temperature: 34 °C; time window: 0-4 h after rhamnose induction
# Description: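 In vivo DNA recorder in E. coli TOP10(DE3) ΔrhaA at 34 °C. Each TEVp single-site mutant (parent TEVp 0) is paired with a single-site variant of the 7-mer TEVs (canonical ENLYFQ|S). The substrate sits between flexible linkers in a Bxb1-sfGFP-TEVs-SsrA fusion, so cleavage stabilises Bxb1 and speeds flipping of a recombination array, read by NGS. The value is the raw area under the fraction-flipped curve over 0-4 h after rhamnose induction (AUC4h), with ≥20 reads per time point. It is not background-subtracted; inactive controls average about 0.047.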
# 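Further: Bxb1 expression induced with 0.2% (w/v) L-rhamnose at OD600 near 0.5, cultures sampled hourly, flipped fraction per protease–substrate barcode pair counted by paired-end Illumina sequencing.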
Variant,area with substrate ENAYFQS,area with substrate ENCYFQS,area with substrate ENDYFQS,area with substrate ENFYFQS,area with substrate ENGYFQS,area with substrate ENHYFQS,area with substrate ENIYFQS,area with substrate ENKYFQS,area with substrate ENMYFQS,area with substrate ENNYFQS,area with substrate ENPYFQS,area with substrate ENQYFQS,area with substrate ENRYFQS,area with substrate ENSYFQS,area with substrate ENVYFQS,area with substrate ENWYFQS,area with substrate ENEYFQS,area with substrate ENTYFQS,area with substrate ENYYFQS
P9C,0.0521,0.0618,0.06,0.0695,0.0439,0.0568,0.113,0.0451,0.0781,0.0579,0.0624,0.058,0.0609,0.0486,0.0876,0.0692,–,–,–
N13M,0.0695,0.0855,0.0518,0.058,0.0527,0.0652,–,0.0709,0.058,–,0.063,0.0647,0.061,0.0637,0.0743,0.0601,0.063,0.0707,0.058
N13H,0.0728,0.0768,0.0623,0.0643,0.032,–,–,0.0607,0.0836,0.0588,0.0583,0.063,–,–,0.0754,–,0.0675,0.0656,–
N13F,0.0581,0.0691,0.0675,0.056,0.0588,0.0586,–,0.0624,0.0687,0.0575,0.0536,0.0577,0.0544,0.0567,0.0616,0.0391,0.0596,0.0663,0.0844
T23A,0.057,0.066,0.0487,–,–,0.0672,–,0.0536,0.0674,–,0.0333,0.0673,–,0.0542,0.0804,–,0.0483,0.062,0.0567
T23K,0.055,0.0543,0.0693,0.0647,0.0531,0.0657,0.105,0.0635,–,–,0.0591,0.0568,0.0613,0.0667,0.0806,0.0506,0.0689,0.0664,–
T23E,0.0626,–,0.0632,0.068,0.0559,0.069,0.111,–,0.0696,0.0472,0.0274,0.0569,–,0.061,–,–,0.0571,0.0582,0.0647
I15P,0.0577,–,0.0631,0.0563,0.0444,0.0569,–,0.0749,–,0.053,0.0544,0.0626,0.0443,0.0584,–,0.062,0.0488,0.045,–
I19W,0.064,–,–,0.0511,0.0478,0.0438,–,0.0514,–,0.0554,–,0.0487,0.0487,0.0571,0.0519,–,0.0503,0.0351,0.0473
T31V,0.0645,0.0684,–,–,0.0538,0.0597,0.102,0.0566,0.0558,0.0671,0.0578,0.0574,0.0604,0.0661,0.0835,0.0022,0.0537,0.0906,0.0631
G37A,0.0569,0.0762,–,0.0682,0.0657,–,0.096,0.0547,–,–,0.0629,–,–,0.028,0.0804,–,0.0708,0.0657,–
G37F,0.0471,0.059,0.0568,0.0573,0.0607,0.0494,0.0479,0.0491,0.0439,0.0543,0.0436,0.0449,0.0482,0.0499,0.0793,0.0597,0.0541,0.0481,0.0559
